# Results from PubChem BioAssay AID652104 (National Center for Advancing Translational Sciences (NCATS), 2013).
# Out of some 410,000 compounds screened, about 7,200 (1.8%) were called active. This list was built around the results that the source calls inconclusive (neither active nor inactive); the mix of calls is not that of the screen. Calls come from the whole dose curve; as a rule, active = well fitted activation curve with a large enough effect; inconclusive = small, poorly fitted or top-dose-only effect, or another doubt; inactive = no such curve, though single readings can be large or run the other way. Potencies of inconclusive entries are left out as doubtful fits.
# Test: qHTS of TDP-43 Inhibitors; note: nearly all actives have a fitted effect of over 50% in size; for growth rescue (activation): % of control where 0% means no effect
# Settings: TDP-43 expressing yeast growth rescue, BacTiter-Glo, 24 h; growth rescue (activation): at 46.1 µM (top of the series) unless noted
# Method in brief: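 Growth rescue of TDP-43-toxic yeast measured as ATP luminescence (BacTiter-Glo). Cells grown to mid-log in raffinose, induced in galactose at OD600=0.02, exposed to compound 24 hr at 30 deg C.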
# Potency is the fitted concentration of half-maximal effect; tags give direction and shape of the fitted curve.
SMILES,Potency,growth rescue (activation)
COCCCNC(=O)c1cccc2c(-c3ccc(O)c(OC)c3)coc12,"inconclusive [activator, single point]",
N#CCSc1nc2ccccc2c(=O)n1-c1ccccc1,"inconclusive [activator, single point]",
Cc1cc(C)cc(OCC(=O)NNC(=S)NC(=O)C2CC2)c1,,inconclusive: -63.5% [activator]
COc1ccc(-c2cc(-c3n[nH]c(=S)n3-c3cc(OC)ccc3OC)[nH]n2)cc1,"inconclusive [activator, partial curve, poor fit]",
CC(C)C(c1nnnn1C1CCCC1)N1CCN(C(=O)c2ccco2)CC1 (stereo not given),,inactive: -10.2%
Cc1cc(C)nc(SCc2nnc(SCC(N)=O)o2)n1,,inactive: 9.24%
O=C(O)c1ccc(N2CCN(C(c3ccccc3)c3ccccc3)CC2)c([N+](=O)[O-])c1,active: 11.2 µM,
CCC(C)N(C)C(=O)c1cc2ccccc2c(-c2ccccc2Cl)n1 (stereo not given),"inconclusive [activator, partial curve]",
COC(=O)c1c(C)[nH]c(C(=O)C(C)OC(=O)C2CC(=O)N(c3ccc(C)cc3)C2)c1C (stereo not given),"inconclusive [activator, partial curve]",
Cc1cccc(/C(N)=N/OC(=O)Cc2cccc3ccccc23)c1,active: 11.2 µM,
Cc1ccc(S(=O)(=O)N2CCOC23CCN(C(=O)c2ccccc2Br)CC3)cc1,active: 15.8 µM,
COc1ccccc1-c1cc(C(F)(F)F)nc(S(=O)(=O)CCCC(=O)Nc2ccc(F)cc2F)n1,active: 14.1 µM,
Brc1cccc(-c2nc3c4ccccc4ccn3c2Cc2ccsc2)c1,"inconclusive [activator, partial curve]",
COc1ccc(NC(=O)CN(C)C(=O)c2cc3c(s2)CCC(C)C3)cc1 (stereo not given),"inconclusive [activator, single point]",
O/N=C(/c1ccc(Cl)cc1)C1CC1c1ccccc1 (stereo not given),"inconclusive [activator, partial curve]",
COc1ccc(C(=O)c2ccc([N+](=O)[O-])cc2Cl)cc1,active: 11.2 µM,
Cc1ccccc1CNC(=O)c1ccc2[nH]c(C)c(C)c2c1,,inactive: -0.153%
Cc1cc(Cl)nc(SCC(=O)c2ccccc2)n1,"inconclusive [activator, partial curve]",
Cc1ccc2oc(=O)n(Cc3ccccc3)c2c1,"inconclusive [activator, partial curve]",
Cc1cccc(N2CCN(C(=O)CSc3nnnn3C3CC3)CC2)c1C,"inconclusive [activator, partial curve]",
Cc1ccc(N2C(=O)c3ccccc3C2Nc2ccc(S(=O)(=O)N3CCOCC3)cc2)nc1 (stereo not given),,inactive: 1.41%
S=c1[nH]c2ccccc2n2c(=S)[nH]nc12,"inconclusive [activator, full curve, poor fit]",
COc1ccc(N2CCN(C(=O)c3csc4ccccc34)CC2)cc1,"inconclusive [activator, single point]",

SMILES,Potency,growth rescue (activation)
CCC(=O)OC1(C)C(=O)C2=COC(c3ccc(OC)cc3)=CC2=C(Br)C1=O (stereo not given),,inconclusive: -92.5% [activator]
S=c1[nH]nc(-c2ccccc2)n1/N=C/C=C/c1ccco1,,inactive: 19.2%
O=C(c1ccc(Oc2ccc(Cl)cc2)c([N+](=O)[O-])c1)N1CCCC1,"inconclusive [activator, single point]",
CC(=O)OC[C@@H]1CN(Cc2cccc(C(F)(F)F)c2)C[C@H](n2cnc3c(NCc4ccco4)ncnc32)O1,active: 11.2 µM,
COc1ccccc1N1CCN(C(=O)c2ccc(Br)o2)CC1,"inconclusive [activator, partial curve]",
CC(=O)OC1(C(F)(F)F)Oc2ccccc2NC1=O (stereo not given),"inconclusive [activator, single point]",
Cc1nc(CCNC(=O)c2cc(COc3ccc(F)cc3Cl)on2)sc1C,"inconclusive [activator, single point]",
CCCCn1c(N)c(N(CCOC)C(=O)C2CC(=O)N(c3ccc(CC)cc3)C2)c(=O)[nH]c1=O (stereo not given),"inconclusive [activator, partial curve, poor fit]",
OC1C(O)C(O)C(O)C(O)C1O (stereo not given),"inconclusive [activator, partial curve]",
CCCC(=O)OCC(=O)Nc1ccc(OC(F)F)cc1,"inconclusive [activator, single point]",
O=C(N/N=C/c1ccc(Cl)cc1)C(=O)N1CCCCCC1,"inconclusive [activator, partial curve]",
Cc1cc(C)cc(Nc2cc(C)nc3nc(-c4ccco4)nn23)c1,"inconclusive [activator, full curve]",
CCOC(=O)c1ccn(-c2nc(-c3cccc(OC)c3)cc(C(F)(F)F)n2)n1,"inconclusive [activator, partial curve]",
CCOc1ccc2c3c(c(=O)oc2c1OCC)CCCC3,active: 22.4 µM,
COc1cccc(NC(=O)N(Cc2c[nH]c3ccccc23)C2CCCCC2)c1,"inconclusive [activator, partial curve]",
COc1ccc(NC(=O)C2CCCN2S(=O)(=O)c2cccc3cccnc23)c(OC)c1 (stereo not given),active: 2.51 µM,
CC1/C(=N/O)CC(c2ccccc2)N(C)C1c1ccccc1 (stereo not given),"inconclusive [activator, full curve, poor fit]",
CC(C)c1ccc(NC(=O)CCn2c(=O)c3cccn3c3ccccc32)cc1,"inconclusive [activator, partial curve]",
N/C(=N\OC(=O)C1CCCCC1)c1ccncc1,,inactive: -0.262%
O=C(CS)Nc1ccc2ccccc2c1,"inconclusive [activator, single point]",
CCOC(=O)Cn1c(=NC(=O)CSC(C)=O)sc2cc(F)ccc21,"inconclusive [activator, single point]",
COc1ccc(C2=NOC(CN3C(=O)c4ccccc4S3(=O)=O)C2)cc1 (stereo not given),"inconclusive [activator, partial curve]",
